Reference: the RNAGym collection of RNA variant scans (doi:10.7554/elife.90254)
Read counts are not given, so values of variants with three or more changes are uncertain.

B1: LINE1-full (parent)
chain: UACGUAGGUGGUUUUCCCCUGAUAGUGCUAAGGGGGCCUGGAAGUUUGGACUGGGCAGAGCUCAACACAGCGUGGCAAAGUGGCUGUGGCUAGACUGCCUCUCUGGAUUCCUCGUCACUCAGCAGGGCAUCUCUGAGAGAAAUGCC

Variants of: B1
Assay: self-cleavage, relative activity (ratio to wild type); higher = more cleavage; in vitro, sequencing; the parent is a self-cleaving ribozyme

Variant	self-cleavage
U9A A31U A92G	0.69
A6U A31U A59G A141G	0.33
G7C U52A A77U A94G	0.44
G7U G36A U62C	0.03
A6U A42G A94G U100C A142G	0
G7A U15C U47C A117U	0.99
G7A U14C A78G A138G	1.15
A6G U47C A57U	0.2
A6G U13C A78G U102A	1.66
U9A A69C G72A U73C U100C	0
A6U U12C A67C U96A A138G	0.33
G7U G10C A64G U85G A117G	0
A6G U104A A138G	0.67
A6U U15C G41A A78G	1.64
G7A A50G A77G	0
A6U A22G U26C U47C G89A A138G	0.28
U9A U15C U45A A77G U134A	0.45
G8A A22G A107G A129G	0.71
A6U U13C A138G	0.52
U9A A67U C103A	0.1
U9A U12C U15A C84U U91C G105A	0.26

Variant	self-cleavage
U9A A31G U96C	0
G7U U85C U100A C116U G126U A129U	0.09
G8A U47G U73C	0
U9A A50G C56U U81A A107G A124U A142C	0.06
A6G U112C G122U A140G	1.21
A6U U12G U26A U100C A121U	0.98
G7A U87A U96C	0.11
U9A A24G U132C	0.47
A6U U13C U39A A79G C131U	0.66
U9A U12C G44A G60C	0.22
A6U A22G C63U A67G U73C	0.46
A6G U47C U73C	0.16
G8A U9A U26A A30G U52C G114U	0.57
U9A A67G U100A U134A U143C	0
U9A U12G U13C G25A U47A	0
U9A A43G U130A	0.59
G7A G25A U29C A57G	0.33
U9A A67U G72A A136U	0.11
U9A A140G A141G	1.13
U9A U46C A94G	0
U9A U39C U62C A140G	0.09

Variant	self-cleavage
U9A C17U U102A U115C A117G	1.15
A6G U52C U96A A117U	0.2
U9A G35A A42U U45G A92G A121C	0
G8A U45C U73C	1.45
A6G U14A G55A A107G	0.15
A6G U115C A117C	0
G8U U13C U85C	0.1
A6G U26A A57U	0.3
G7A U46C A142G	1.51
U9A A107G A121G A140G	0.61
A6G U112A A142G	1.41
U9A U39C U87A A124G	0
U9A A31G U47C	2.3
G7U A65U G86U U87C A141G	0.04
A6G U46C U115C	0.84
A6U G41U U108C	1.39
U9A C66U G86A	0.05
A6G U132C U143A C145U	0.48
G8U U45C C98U	0.18
G8U A77U U112C	1.62
U9A U47C A140C A141G	1.45

Variant	self-cleavage
G8C A24G U29G	0.99
A6G U14C G49A	0.56
A6U A43U A142G	1.12
U9A U39C A78G A142G	1.8
G8A A50C A77G U85C	0
U9A U23C A57G	0.92
U9A U12C A138G	0.87
G8A U15C U20C A59G U96A U108C	0
U9A A43G G97U U143C	0.05
U9A U20C A42U U85C	0.32
A6G U39C A50G A141G A142G	2.16
G7U U14C A42G A129U A142U	1.34
G7U U62C U102A	0
A6G U13C A22U A42G C99U	0.4
G7U A24U A57G	0.24
U9A A67G U130C	0.9
A6G U14C A42G	0.77
A6G U46A C61U U73A U81A	0
G8U A43G U130C	1.96
G8A A77U U100C	0.78
